Measured values as given in paper PMC9697025, “Discovery of N-Containing (-)-Borneol Esters as Respiratory Syncytial Virus Fusion Inhibitors” (Pharmaceuticals, 2022).

System: RSV
Experiment: Temperature shift assay (virus attachment at 4 °C vs post-binding)
Conditions: compound present with RSV at 4 °C for 1 h, then unbound virus and compound washed away, shift to 37 °C

| Compound | anti-RSV activity, temperature shift conditions (A) |
| --- | --- |
| CN(C)CCC(=O)O[C@@H]1C[C@@H]2CC[C@@]1(C)C2(C)C [Compound 3b] | no anti-RSV activity |
| CC1(C)[C@H]2CC[C@]1(C)[C@H](OC(=O)CN1CCOCC1)C2 [Compound 5a] | no anti-RSV activity |
| CC1(C)[C@H]2CC[C@]1(C)[C@H](OC(=O)CCN1CCCCC1)C2 [Compound 6b] | no anti-RSV activity |
